In PubChem BioAssay AID493208 (National Center for Advancing Translational Sciences (NCATS), 2011):
Screen size: about 44,000 compounds; about 340 (0.77%) were called active. Inconclusive results (about 5%) are left out. The call rests on the fitted dose curve; in most records, active means well fitted inhibition curve with a large enough effect; inconclusive means small, poorly fitted or top-dose-only effect; inactive means flat fitted curve, though single readings scatter. The list shows a part of the results.

Experiment: Acumen qHTS Assay for Inhibitors of the mTORC1 Signaling Pathway in MEF (Tsc2-/-, p53-/-) Cells: Sytravon; further: nearly all actives have a fitted effect of over 50% in size;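 on activity change, negative = inhibition: plate controls were DMSO for no effect and rapamycin for full effect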
Conditions: phospho-rpS6 immunofluorescence/PI, 24 h; series mostly up to 38.3 µM; activity change, negative = inhibition: at the top concentration
Method in brief: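 Immunofluorescence of rpS6 phosphorylation in Tsc2-/-, p53-/- MEFs after 24 h compound exposure, normalized to propidium iodide signal. Activity is expressed as % positive cells, thresholded with 7.5 nM rapamycin.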
Potency means the concentration at half of the fitted maximal effect.

| Compound | activity change, negative = inhibition | Potency |
| --- | --- | --- |
| COc1cccc(Cn2c(=O)n(CC3CCC(C(=O)NC(C)C)CC3)c(=O)c3sccc32)c1 (stereo unspecified) | inactive: -11% |  |
| Cc1cn(C)c(CC(=O)NCc2ccc(Cl)cc2)c1C(=O)O | inactive: -9.1% |  |
| Cc1cccc(OC(=O)CSc2nnc(-c3ccc4c(c3)OCO4)o2)c1C | inactive: -9.84% |  |
| Cc1ccc(C2=NN(CC(=O)NCCc3ccccc3)C(=O)CC2)cc1 | inactive: 1.77% |  |
| Cc1ccc(CCNS(=O)(=O)c2ccc3c(c2)C(C(C)C)C(=O)N3)cc1 (stereo unspecified) | inactive: -3.37% |  |
| COc1cc(NC(=O)CN2C(=O)CCc3cc(Br)ccc32)cc(OC)c1OC | inactive: 0% |  |
| Cc1cccc(-c2noc(-c3cc(C(C)C)[nH]n3)n2)c1 | inactive: 0% |  |
| CC(=O)N1c2ccccc2C(=O)C1N1CCN(c2cccc(Cl)c2)CC1 (stereo unspecified) | inactive: -1.44% |  |
| CCOc1ccc(C2c3c(-c4cc(C)ccc4O)n[nH]c3C(=O)N2Cc2cccnc2)cc1OCC (stereo unspecified) | inactive: -7.06% |  |
| COc1ccccc1NC(=O)CC(C)n1nc(C)cc1C (stereo unspecified) | inactive: 1.04% |  |
| COc1ccc(OC)c(CCNC(=O)CCCn2c(=O)c3cccn3c3ccc(F)cc32)c1 | inactive: -25.1% |  |
| COc1ccccc1Nc1ncc2c(n1)CCN(Cc1ccc(C)s1)C2 | inactive: 0% |  |
| Cc1cc(F)ccc1NC(=O)CCS(=O)(=O)c1cc2c(cc1C)NC(=O)CO2 | inactive: 2.84% |  |
| COc1ccc(-n2nc3c(N4CCC(C(=O)NCc5ccccc5C)CC4)nnc(C)c3c2C)cc1 | inactive: -2.49% |  |
| CCOC(=O)N1CCC(NC(=O)c2c(C)nn(-c3cccc(C)c3)c2-n2cccc2)CC1 | inactive: -5.39% |  |
| CCOC(=O)c1ccc(NC(=O)CSc2nc3c(c(=O)[nH]2)CN(Cc2ccccc2)CC3)cc1 | inactive: 0.0661% |  |
| Cc1ccc2c(=O)c(C(=O)c3cccc(Cl)c3)cn(CC(=O)NC3CCCCC3)c2n1 | inactive: 4.57% |  |
| CC(C)(C)C(=O)NCCc1nc2ccccc2n1CCCCOc1ccccc1 | inactive: -10.4% |  |
| Cc1ccc(N(CC(=O)N2CCN(c3ccc(F)cc3)CC2)S(=O)(=O)c2c(C)noc2C)cc1 | inactive: -2.76% |  |
| Cc1ccc(CSc2cn(CC(=O)N3CCCCCC3)c3ccccc23)cc1 | inactive: -18.7% |  |
| COc1cccc(CNC(=O)Cn2ncc3c(=O)oc4ccccc4c32)c1 | inactive: -8.23% |  |
| O=S(=O)(NCc1ccc(F)cc1)c1ccc(N2CCCCS2(=O)=O)cc1 | inactive: -29.7% |  |
| CCOc1ccccc1CNCCCSc1nnnn1C | inactive: 0.65% |  |
| CCCN(Cc1cc2cccc(C)c2[nH]c1=O)C(=O)c1cccc(Cl)c1 | inactive: 3.5% |  |

| Compound | activity change, negative = inhibition | Potency |
| --- | --- | --- |
| Cc1ccc(Cl)cc1NC(=O)Cn1c(=O)cc(C)c2c(C)nn(C)c21 | inactive: -17.4% |  |
| Cc1ccc(CNC(=O)CCNS(=O)(=O)c2ccc3c(c2)oc(=O)n3C)cc1 | inactive: 2.26% |  |
| Cc1cc(C)c(S(=O)(=O)Nc2ccc3oc(C)c(C(=O)OC(C)C)c3c2)cc1C | inactive: 3.56% |  |
| O=C(COc1ccc(Br)cc1Br)Nc1ccc(S(=O)(=O)Nc2ncccn2)cc1 | inactive: 0.573% |  |
| COc1cccc(C2CC(=O)Nc3c2c(=O)n(C)c2nc4ccccc4n32)c1OC (stereo unspecified) | inactive: 6.79% |  |
| O=C(CCn1c(=O)c2sccc2n(Cc2ccc(F)cc2)c1=O)NCc1ccc2c(c1)OCO2 | inactive: -23.9% |  |
| Cc1ccc(-n2nc3cc(C)c(NC(=O)c4ccc(-c5ccccc5)o4)cc3n2)cc1 | inactive: 3% |  |
| Cc1ccc(NC(=O)CC2Oc3ccc(C)cc3NC2=O)c(C)c1 (stereo unspecified) | inactive: -6.38% |  |
| COc1cccc(Nc2nnc(-c3cc4ccc(O)cc4oc3=O)s2)c1 | inactive: -5.73% |  |
| CCOc1ccc(NC(=O)Cn2c(=O)n(CCc3ccccc3)c(=O)c3c4c(sc32)CCCC4)cc1 | inactive: 3.62% |  |
| CC(=O)c1ccc(NC(=O)Cn2nc(C(F)(F)F)c3c2CCC3)cc1 | inactive: -2.18% |  |
| Cc1ccc(CSc2c(C)cnc3c2c(=O)n(C)c(=O)n3C)cc1 | inactive: -1.59% |  |
| CCOC(=O)C1=C(CN2CCN(c3ccc(Cl)cc3)CC2)NC(=O)NC1c1ccc(OC)cc1 (stereo unspecified) | inactive: -0.977% |  |
| O=C(Cn1ncc2c3ccccc3n(Cc3ccccc3)c2c1=O)NCc1cccs1 | inactive: -1.41% |  |
| Cc1ccc(Cl)cc1N1CCN(C(=O)Cn2cnc3onc(-c4ccc(F)cc4)c3c2=O)CC1 | inactive: 3.15% |  |
| CCc1nc2ccc(C(=O)N3CCN(c4ccccc4F)CC3)cc2nc1CC | inactive: 2.35% |  |
| COc1cccc2sc(NC(=O)c3ccc4c(c3)OCCO4)nc12 | inactive: 10% |  |
| CCCCNC(=O)CCC1N=C2c3ccccc3N=C(SCC(=O)NCCc3ccc(OC)c(OC)c3)N2C1=O (stereo unspecified) | inactive: 2.52% |  |
| CCN(CC)CCNC(=O)CCn1c(=O)c2cccn2c2cccnc21 | inactive: 4.53% |  |
| Cc1ccc2nc(-c3ccc(NC(=O)Cc4ccccc4)cc3)sc2c1 | inactive: 7.67% |  |
| O=C(CSc1nc2ccsc2c(=O)n1Cc1ccc(F)cc1)NCc1ccc(Cl)cc1 | inactive: -1.27% |  |
| COc1ccc(OC)c(-c2cc(C(=O)Nc3ccc(C)c(C)c3)no2)c1 | inactive: -24.6% |  |
| CN1c2ccc(Cl)cc2-c2nc(SCC(=O)NCc3ccc(F)cc3)ncc2S1(=O)=O | inactive: 3.34% |  |
| O=C1CCCc2cc(S(=O)(=O)NCC3CCC(C(=O)Nc4ccc(Cl)cc4)CC3)ccc2N1 (stereo unspecified) | inactive: -19.2% |  |

| Compound | activity change, negative = inhibition | Potency |
| --- | --- | --- |
| CC1=C(C(=O)Nc2ccc(C)cc2C)C(c2ccccc2)n2nc(SCC(=O)c3ccc(C)cc3)nc2N1 (stereo unspecified) | inactive: -3.43% |  |
| CCc1ccccc1NC(=O)CCNS(=O)(=O)c1ccc2c(c1)CCCC(=O)N2 | inactive: -2.52% |  |
| COc1ccc(NC(=O)Cn2c(=O)oc3ccccc32)cc1 | inactive: -0.0579% |  |
| O=C(NCC(c1ccc2c(c1)OCO2)N1CCOCC1)c1ccccc1 (stereo unspecified) | inactive: -1.67% |  |
| Cc1c(O)nc(SCC(=O)Nc2ccc(Cl)cc2Cl)n(-c2ccc(F)cc2)c1=O | inactive: -9.51% |  |
| CCN1CCN(c2ncc3c(n2)CCN(Cc2cc(Br)cs2)C3)CC1 | inactive: 0% |  |
| CCC(C)NC(=O)c1cc2cc(S(=O)(=O)N3CCCCC3)ccc2n1C (stereo unspecified) | inactive: 0.452% |  |
| CCC(C)c1ccc(OCC(=O)Nc2cccc3ccc(C)nc23)cc1 (stereo unspecified) | inactive: 1.47% |  |
| Cc1nn(C)c2c1c(C(F)(F)F)cc(=O)n2CC(=O)NCc1ccc(OC(C)C)cc1 | inactive: 0.788% |  |
| COc1cc(Cn2c(=O)oc3ccc(C)cc32)ccc1OCCC(C)C | inactive: -3.45% |  |
| CC(C)(C)c1ccc(S(=O)(=O)N2CCC(Oc3ccc(-n4cnnn4)cc3)CC2)cc1 | inactive: 3.94% |  |
| Cc1cn(C)c(CC(=O)NCc2cccc(Cl)c2)c1C(=O)O | inactive: -0.576% |  |
| CC(C)(C)c1ccc(CSC2=Nc3ccccc3C3=NC(CC(=O)NCc4cccs4)C(=O)N23)cc1 (stereo unspecified) | inactive: -1.5% |  |
| Cc1ccc(CNS(=O)(=O)c2ccc(N3CCCCS3(=O)=O)cc2)cc1 | inactive: 19.6% |  |
| O=C(CNC(=O)c1ccc(Cl)cc1)OCc1cc(=O)n2nc(C3CC3)sc2n1 | inactive: 0.352% |  |
| COC(=O)COc1ccc(C2C(C(=O)OC)=C(C)NC3=C2C(=O)c2ccccc23)cc1OC (stereo unspecified) | inactive: -18.1% |  |
| COc1ccc(Nc2oc(-c3ccc(COc4cccc(C)c4)o3)nc2C#N)cc1 | inactive: -9.89% |  |
| COC(=O)c1cc(NC(=O)CCc2c(C)nc3c(c(C)nn3C(C)(C)C)c2C)cc(C(=O)OC)c1 | inactive: 1.77% |  |
| COc1ccc(CCNC(=O)Cc2c(C)c3cc4c(C(C)(C)C)coc4c(C)c3oc2=O)cc1OC | inactive: -3.89% |  |
| Cc1cc(C)c2c(c1)NC(=O)C2(O)c1c[nH]c2ccccc12 (stereo unspecified) | inactive: -1.4% |  |
| Cc1ccc2c(c1)cc1c(=O)n(Cc3cccc(Cl)c3)nc(C)n12 | inactive: 1.88% |  |
| Cc1nc(N2CCOCC2)c2c(C(=O)N3CCN(c4ccccc4F)CC3)c(C)oc2n1 | inactive: -8.95% |  |
| Cc1ccc(C(=O)N(Cc2ccco2)Cc2sccc2C)cc1 | inactive: -18.5% |  |
| O=C(NCc1ccc(Cl)cc1)c1cc2c(s1)-c1ccccc1SC2 | inactive: -0.955% |  |

| Compound | activity change, negative = inhibition | Potency |
| --- | --- | --- |
| COc1ccc(-c2nc3c(c(SCC(=O)Nc4cccc(O)c4)n2)Cc2c(CO)cnc(C)c2O3)cc1 | inactive: -0.482% |  |
| CC1CCc2onc(C(=O)N3CCN(c4ccccc4)CC3)c2C1 (stereo unspecified) | inactive: -3.96% |  |
| O=C(COc1ccccc1F)Nc1ccccc1C(=O)OCc1cc(=O)n2nc(C3CC3)sc2n1 | inactive: 0% |  |
| COc1cc(OC)cc(C(=O)Nc2cc3c(cc2N2CCCCC2)n(C)c(=O)n3C)c1 | inactive: 1.62% |  |
| CCc1ccccc1NC(=O)Cn1c(=O)n(Cc2ccco2)c(=O)c2ccccc21 | inactive: -1.07% |  |
| COc1ccc(-c2c(C#N)c(SCC(=O)Nc3cccc(Cl)c3)nc(C)c2C(=O)Nc2ccccc2)cc1OC | inactive: 6% |  |
| Cc1ccc(N2C(=O)CC(c3ccccc3F)C3=C2COC3=O)cc1Cl (stereo unspecified) | inactive: -20.6% |  |
| CCc1ccc(NC(=O)C2CCN(c3nn4cc(-c5ccc(OC)cc5)nc4s3)CC2)cc1 | inactive: -4.7% |  |
| COc1ccc(CNC(=O)c2cnc3sc(N4CCC(C)CC4)nn3c2=O)c(OC)c1 | inactive: 0% |  |
| Cc1cccc(S(=O)(=O)Nc2cccc(-c3ccc(N4CCCCC4)nn3)c2)c1 | inactive: -4.51% |  |
| CCN(CC)C(=O)Cn1c(=O)n(-c2ccc(Cl)c(Cl)c2)c(=O)c2c(C)c(C(=O)N(CC)CC)sc21 | inactive: -3.24% |  |
| CCc1nnc2c(N3CCN(c4cccc(C)c4)C(C)C3)nc3ccccc3n12 (stereo unspecified) | inactive: -0.235% |  |
| CCc1ccc(NC(=O)CCn2c(-c3ccc(OC)cc3)cc(C(C)=O)c2C)cc1 | inactive: -10.3% |  |
| COc1cccc(Cc2nc3ccccc3nc2SCC(=O)NCCc2ccccc2)c1 | inactive: 9.24% |  |
| COc1ccc(NC(=O)c2ccc3c(c2)N(Cc2cccc(Cl)c2)C(=O)c2ccccc2S3=O)cc1Cl (stereo unspecified) | inactive: -3.78% |  |
| CC1CCN(c2nc3c(S(=O)(=O)c4ccccc4)nnn3c3ccc(Cl)cc23)CC1 | inactive: -1.57% |  |
| COc1ccc(C2C=C(c3ccc(F)cc3)Nc3nc(-c4ccc(Cl)cc4)nn32)cc1 (stereo unspecified) | inactive: -13.3% |  |
| Cc1c(C)n(Cc2ccccc2)c2ccc(C(=O)NCc3ccccc3F)cc12 | inactive: -2.9% |  |
| COc1ccccc1NC(=O)NCCCN1CCN(c2ccc(F)cc2)CC1 | inactive: -26.2% |  |
| O=C(c1cnn(-c2cccc(F)c2)c1-n1cccc1)N1CCN(c2ccccc2F)CC1 | inactive: 6.94% |  |
| Cc1ccc(-c2nc3ccccc3[nH]2)cc1NC(=O)COc1ccccc1[N+](=O)[O-] |  | active: 2330 nM |
| CC(=O)c1cccc(NC(=O)CN2C(=O)c3ccccc3Sc3ncccc32)c1 | inactive: -3.11% |  |
| CCCN1CCN(CCCNC(=O)c2ccc3c(c2)sc2nc(-c4ccc(OC)cc4)cn23)CC1 | inactive: 10.1% |  |
| Cc1ccc2c(CNCC(C)c3ccccc3)c(C(=O)O)n(Cc3ccccc3C)c2c1 (stereo unspecified) | inactive: -10.5% |  |
